# Assay results: PMC11995724, “Antibiotic target discovery by integrated phenotypic and activity-based profiling of electrophilic fragments” (Cell chemical biology, 2025)
# The campaign covered roughly 3,200 compounds. About 75 (2%) showed an effect of 50% or more. This is one part of the list.
# System: T1, S. aureus MSSA476
# T1 construct: MSSA476
# Design: species or system S. aureus MSSA476 (TSB) or V. cholerae SAD30 (LB); 384-well bacterial growth screen at 25 uM, OD600 relative to DMSO control
# Details: relative growth, OD600, TSB; 25 µM; inhibitor
row,Structure (SMILES),% of control remaining
1,"N#CC(=Cc1cccc(O)c1)C(=O)NCc1ccc(Cl)cc1 [8-P14, N-[(4-chlorophenyl)methyl]-2-cyano-3-(3-hydroxyphenyl)prop-2-enamide]",115.187%
2,"CC(Cl)C(=O)Nc1sc(-c2ccccc2)cc1C(N)=O (centres unmarked) [4-H13, 2-(2-chloropropanamido)-5-phenylthiophene-3-carboxamide]",58.3135%
3,"COc1ccc(C(=O)CCl)c2c1C(=O)CO2 [10-N05, 7-(2-chloroacetyl)-4-methoxy-2,3-dihydro-1-benzofuran-3-one]",95.3125%
4,"O=C(CCl)NCC1CCCCC1 [5-J06, 2-chloro-N-(cyclohexylmethyl)acetamide]",99.4536%
5,"CS(=O)(=O)Nc1ccc(C(=O)CCl)cc1 [10-D19, N-[4-(2-chloroacetyl)phenyl]methanesulfonamide]",28.125%
6,"C=CCNC(=O)C(C#N)=Cc1cccc(C)c1 [8-D05, 2-cyano-3-(3-methylphenyl)-N-(prop-2-en-1-yl)prop-2-enamide]",115.519%
7,"C=CC(=O)N1CCC(C(=O)N[C@H]2CC[C@@H](S(C)(=O)=O)CC2)CC1 [2-J08, 1-(prop-2-enoyl)-N-[(1s,4s)-4-methanesulfonylcyclohexyl]piperidine-4-carboxamide]",108.964%
8,"O=C(CCl)NC1CCCN(Cc2ccccc2)C1=O (centres unmarked) [7-J10, N-(1-benzyl-2-oxopiperidin-3-yl)-2-chloroacetamide]",84.7724%
9,"C=CC(=O)N1CCC[C@H]1c1ccon1 [2-G03, 1-[(2S)-2-(1,2-oxazol-3-yl)pyrrolidin-1-yl]prop-2-en-1-one]",111.749%
10,"C=CCNC(=O)C(C#N)=Cc1ccccc1[N+](=O)[O-] [8-E09, 2-cyano-3-(2-nitrophenyl)-N-(prop-2-en-1-yl)prop-2-enamide]",109.876%
11,"O=C(CCl)NCc1ccnn1C1CCCC1 [7-H08, 2-chloro-N-[(1-cyclopentyl-1H-pyrazol-5-yl)methyl]acetamide]",84.4584%
12,"CCN(Cc1ccc(Cl)s1)C(=O)CCl [6-M11, 2-chloro-N-[(5-chlorothiophen-2-yl)methyl]-N-ethylacetamide]",94.5854%
13,"CC(=O)NCCc1ccc(C(=O)CCl)s1 [10-P03, N-{2-[5-(2-chloroacetyl)thiophen-2-yl]ethyl}acetamide]",143.125%
14,"CC(CO)N(Cc1ccccc1Cl)C(=O)CCl (centres unmarked) [6-D17, 2-chloro-N-[(2-chlorophenyl)methyl]-N-(1-hydroxypropan-2-yl)acetamide]",123.268%
15,"CC(Cl)C(=O)NC(C)c1ccn(C)n1 (centres unmarked) [6-B16, 2-chloro-N-[1-(1-methyl-1H-pyrazol-3-yl)ethyl]propanamide]",103.805%
16,"C=CC(=O)NCC(=O)c1scc(C)c1Cl [1-D16, N-[2-(3-chloro-4-methylthiophen-2-yl)-2-oxoethyl]prop-2-enamide]",113.231%
17,"COc1cc(C=C(C#N)C(=O)Nc2cccc(Cl)c2)cc(O)c1O [9-G20, N-(3-chlorophenyl)-2-cyano-3-(3,4-dihydroxy-5-methoxyphenyl)prop-2-enamide]",81.1985%
18,"Cc1ccc(NC(=O)C(C#N)=CC2=Cc3ccccc3OC2)cc1 [9-B19, 3-(2H-chromen-3-yl)-2-cyano-N-(4-methylphenyl)prop-2-enamide]",88.3895%
19,"C=CC(=O)Nc1ccccc1Sc1nncs1 [1-G04, N-[2-(1,3,4-thiadiazol-2-ylsulfanyl)phenyl]prop-2-enamide]",98.1099%
20,"CCc1ccc(C(=O)CCl)cc1 [10-F18, 2-chloro-1-(4-ethylphenyl)ethan-1-one]",102.188%
21,"C=CC(=O)N1CCC(C(=O)NC2CC2(C)C)CC1 (centres unmarked) [3-C07, N-(2,2-dimethylcyclopropyl)-1-(prop-2-enoyl)piperidine-4-carboxamide]",92.2943%
22,"CCCC(=O)Nc1ccc(C(=O)C(C)Cl)cc1 (centres unmarked) [10-O06, N-[4-(2-chloropropanoyl)phenyl]butanamide]",121.875%
23,"CC(Cl)C(=O)N1CCCC1CC(=O)c1cnn(C)c1 (centres unmarked) [6-D16, 2-chloro-1-{2-[2-(1-methyl-1H-pyrazol-4-yl)-2-oxoethyl]pyrrolidin-1-yl}propan-1-one]",98.6829%
24,"O=C(CCl)NC1CCS(=O)(=O)CC1 [6-M08, 2-chloro-N-(1,1-dioxo-1lambda6-thian-4-yl)acetamide]",112%

row,Structure (SMILES),% of control remaining
1,"COc1ccc(N(C(=O)CCl)C2CCS(=O)(=O)C2)cc1 (centres unmarked) [5-I20, 2-chloro-N-(1,1-dioxo-1lambda6-thiolan-3-yl)-N-(4-methoxyphenyl)acetamide]",89.2532%
2,"CC(Cl)C(=O)N(Cc1ccccc1)C1C=CS(=O)(=O)C1 (centres unmarked) [6-D22, N-benzyl-2-chloro-N-(1,1-dioxo-2,3-dihydro-1lambda6-thiophen-3-yl)propanamide]",108.244%
3,"O=C(CCl)Nc1cccc(OCc2ccccc2)c1 [5-I04, N-[3-(benzyloxy)phenyl]-2-chloroacetamide]",56.4663%
4,"C=CC(=O)NC(C)Cn1nc(C)cc1C (centres unmarked) [1-F10, N-[1-(3,5-dimethyl-1H-pyrazol-1-yl)propan-2-yl]prop-2-enamide]",100.923%
5,"N#CC(=Cc1cnn(Cc2ccccc2)c1)C(=O)NC1CCCC1 [9-O14, 3-(1-benzyl-1H-pyrazol-4-yl)-2-cyano-N-cyclopentylprop-2-enamide]",93.4831%
6,"C=CC(NC(=O)CCl)C1CCOCC1 (centres unmarked) [5-N13, 2-chloro-N-[1-(oxan-4-yl)prop-2-en-1-yl]acetamide]",105.647%
7,"Cc1cc(C)c(C(=O)CCl)c(C)c1 [10-C08, 2-chloro-1-(2,4,6-trimethylphenyl)ethan-1-one]",115.625%
8,"CC(C)(C)c1ccc(C=C(C#N)C(=O)NCc2ccco2)cc1 [8-L14, 3-(4-tert-butylphenyl)-2-cyano-N-[(furan-2-yl)methyl]prop-2-enamide]",93.61%
9,"CN(C)S(=O)(=O)c1cccc(NC(=O)CCl)c1 [4-J08, 2-chloro-N-[3-(dimethylsulfamoyl)phenyl]acetamide]",96.4269%
10,"C=CC(=O)N(C)Cc1conc1CC [2-O15, N-[(3-ethyl-1,2-oxazol-4-yl)methyl]-N-methylprop-2-enamide]",90.8616%
11,"CC(NC(=O)CCl)c1nnc(-c2cccc(F)c2)s1 (centres unmarked) [5-F13, 2-chloro-N-{1-[5-(3-fluorophenyl)-1,3,4-thiadiazol-2-yl]ethyl}acetamide]",114.754%
12,"O=C(CCl)NCc1ccc(NC(=O)C2CC2)cc1 [6-E20, N-{4-[(2-chloroacetamido)methyl]phenyl}cyclopropanecarboxamide]",109.951%
13,"O=C(CCl)Nc1cc(Cl)ccc1Oc1ccccc1 [5-G19, 2-chloro-N-(5-chloro-2-phenoxyphenyl)acetamide]",67.031%
14,"C=CC(=O)NCCn1cnc2ccsc2c1=O [2-N15, N-(2-{4-oxo-3H,4H-thieno[3,2-d]pyrimidin-3-yl}ethyl)prop-2-enamide]",127.763%
15,"Cc1ccccc1NC(=O)C(C#N)=Cc1ccc(N2CCCCC2)cc1 [9-E21, 2-cyano-N-(2-methylphenyl)-3-[4-(piperidin-1-yl)phenyl]prop-2-enamide]",111.161%
16,"CCOc1ccccc1NC(=O)C(C#N)=Cc1c(C)[nH]c2ccccc12 [9-A06, 2-cyano-N-(2-ethoxyphenyl)-3-(2-methyl-1H-indol-3-yl)prop-2-enamide]",85.3933%
17,"CCOc1ccccc1NC(=O)C(C#N)=Cc1ccc2c(c1)OCO2 [9-P05, 3-(1,3-dioxaindan-5-yl)-2-cyano-N-(2-ethoxyphenyl)prop-2-enamide]",90.1873%
18,"COc1ccc(Cl)cc1N1C(=O)C=CC1=O [10-K10, 1-(5-chloro-2-methoxyphenyl)-2,5-dihydro-1H-pyrrole-2,5-dione]",104.375%
19,"C=CC(=O)NCc1ccc(C(=O)N2CCC(c3ccn[nH]3)CC2)cc1 [3-K08, N-({4-[4-(1H-pyrazol-5-yl)piperidine-1-carbonyl]phenyl}methyl)prop-2-enamide]",99.6082%
20,"C=CC(=O)N(Cc1nonc1C)CC1C(C)=CCCC1C (centres unmarked) [1-F15, N-[(2,6-dimethylcyclohex-2-en-1-yl)methyl]-N-[(4-methyl-1,2,5-oxadiazol-3-yl)methyl]prop-2-enamide]",96.7033%
21,"CCOC(=O)c1c(C)[nH]c(C(=O)C(C)Cl)c1C (centres unmarked) [10-B22, ethyl 5-(2-chloropropanoyl)-2,4-dimethyl-1H-pyrrole-3-carboxylate]",130%
22,"COc1cc(Cl)c(C)cc1NC(=O)C(C)Cl (centres unmarked) [6-C15, 2-chloro-N-(4-chloro-2-methoxy-5-methylphenyl)propanamide]",100.732%
23,"C=CC(=O)N1CCC(C(=O)NCc2cccc(Cl)c2F)CC1 [3-N12, N-[(3-chloro-2-fluorophenyl)methyl]-1-(prop-2-enoyl)piperidine-4-carboxamide]",95.4288%
